Results: the supplement of paper PMC7125110
± gives the standard error. Variants at the floor of the assay are shown more often than the library holds them.

B1: glmS ribozyme (parent)
chain: AUAAAAGCGCCAGAACUACAGAAAUGUAGUUGACGAGGAGGAGGUUUAUCGAAUUUUCGGCGGAUGCCUCCAAA

Experiments:
Details in all cases: with glucosamine-6-phosphate
[1] = variants of: B1; experiment: self-cleavage kobs at 40 uM GlcN6P; higher = faster cleavage; RNA array
Procedure, shortened: (§1)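 Glucosamine-6-phosphate (40 μM to 10 mM) in HEPES/KCl/Mg(OAc)2 buffer was flowed over sequenced MiSeq chips, and tiles were imaged over ~14 h. Barcoded ribozyme variants there had been transcribed in situ by E. coli RNA polymerase and were tracked through a hybridised Cy3 probe at 37 °C. One- or two-exponential decay fits to per-tile medians, normalised to baseline and to non-cleaving reference variants, gave kobs. kcat and KM came from weighted Michaelis–Menten fits across concentrations.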

[2] = variants of: B1; experiment: self-cleavage kobs at 10000 uM GlcN6P; higher = faster cleavage; RNA array
Procedure, shortened: as §1

[3] = variants of: B1; experiment: self-cleavage kobs at 640 uM GlcN6P; higher = faster cleavage; RNA array
Procedure, shortened: as §1

[4] = variants of: B1; experiment: self-cleavage kobs at 160 uM GlcN6P; higher = faster cleavage; RNA array
Procedure, shortened: as §1

[5] = variants of: B1; experiment: self-cleavage kobs at 2500 uM GlcN6P; higher = faster cleavage; RNA array
Procedure, shortened: as §1

Variant	self-cleavage kobs at 40 uM GlcN6P [1]	self-cleavage kobs at 10000 uM GlcN6P [2]	self-cleavage kobs at 640 uM GlcN6P [3]	self-cleavage kobs at 160 uM GlcN6P [4]	self-cleavage kobs at 2500 uM GlcN6P [5]
C10G G13U A14U	< 1e-05 s⁻¹	–	–	–	–
G9U G41U A42G A64U C71U	< 1e-05 s⁻¹	–	–	–	–
C11A G59A G60A A64U	< 1e-05 s⁻¹	–	–	–	–
C10A G44U C50G U69C	< 1e-05 s⁻¹	< 1e-05 s⁻¹	–	–	–
C10U G60U	< 1e-05 s⁻¹	< 1e-05 s⁻¹	< 1e-05 s⁻¹	< 1e-05 s⁻¹	–
G9U C16A U54G	< 1e-05 s⁻¹	< 1e-05 s⁻¹	< 1e-05 s⁻¹	–	< 1e-05 s⁻¹
C10A C50G G63C	0.000128 ± 3.3e-05 s⁻¹	4.91e-05 ± 1.8e-05 s⁻¹	–	–	7.48e-05 ± 2.8e-05 s⁻¹
C10A A39G G63A	< 1e-05 s⁻¹	–	–	–	–
G9U G63U	< 1e-05 s⁻¹	< 1e-05 s⁻¹	< 1e-05 s⁻¹	–	< 1e-05 s⁻¹
C11A A12G U30C	< 1e-05 s⁻¹	–	–	–	–
C10U A52G G66U	< 1e-05 s⁻¹	< 1e-05 s⁻¹	–	–	–
C10U G44U C50A	< 1e-05 s⁻¹	–	–	–	–
C10G C50G G63A C71U	6.86e-05 ± 1.9e-05 s⁻¹	–	–	–	–
C10G G29U	< 1e-05 s⁻¹	< 1e-05 s⁻¹	< 1e-05 s⁻¹	–	–
C11A C34G G43C G51U G60C	< 1e-05 s⁻¹	–	< 1e-05 s⁻¹	–	–
C10U A15C G43U C50U U57G G59A	< 1e-05 s⁻¹	–	–	–	–
G9U G13C	< 1e-05 s⁻¹	< 1e-05 s⁻¹	< 1e-05 s⁻¹	< 1e-05 s⁻¹	–
C11A A12U A52U	< 1e-05 s⁻¹	–	–	–	–
C10U C34U	< 1e-05 s⁻¹	< 1e-05 s⁻¹	–	< 1e-05 s⁻¹	< 1e-05 s⁻¹

Variant	self-cleavage kobs at 40 uM GlcN6P [1]	self-cleavage kobs at 10000 uM GlcN6P [2]	self-cleavage kobs at 640 uM GlcN6P [3]	self-cleavage kobs at 160 uM GlcN6P [4]	self-cleavage kobs at 2500 uM GlcN6P [5]
C11A G32U G62A G66U	< 1e-05 s⁻¹	< 1e-05 s⁻¹	–	–	–
C11G A15G A53C	< 1e-05 s⁻¹	–	–	–	< 1e-05 s⁻¹
G9U G29A A36C	< 1e-05 s⁻¹	–	–	–	–
C10A C34U	< 1e-05 s⁻¹	–	< 1e-05 s⁻¹	< 1e-05 s⁻¹	–
C10U G38A U47A	< 1e-05 s⁻¹	–	< 1e-05 s⁻¹	–	< 1e-05 s⁻¹
C10A A14U C70A	5.36e-05 ± 2.5e-05 s⁻¹	3.49e-05 ± 1.4e-05 s⁻¹	–	–	–
C10G U47A G60U C61U	< 1e-05 s⁻¹	–	–	–	–
C10G C11U U49A G62U	< 1e-05 s⁻¹	–	< 1e-05 s⁻¹	–	–
C11G A12C G13C C61U	< 1e-05 s⁻¹	–	–	–	–
C10U A15G G40U	< 1e-05 s⁻¹	< 1e-05 s⁻¹	–	–	–
C10G G41U C61G G66U	< 1e-05 s⁻¹	–	–	< 1e-05 s⁻¹	–
C10G C34A	< 1e-05 s⁻¹	< 1e-05 s⁻¹	< 1e-05 s⁻¹	< 1e-05 s⁻¹	< 1e-05 s⁻¹
C10G C34U	< 1e-05 s⁻¹	< 1e-05 s⁻¹	< 1e-05 s⁻¹	< 1e-05 s⁻¹	< 1e-05 s⁻¹
C10U C16G	< 1e-05 s⁻¹	–	< 1e-05 s⁻¹	–	–
C11A C34U	< 1e-05 s⁻¹	–	< 1e-05 s⁻¹	–	–
G9U U30C A36C	< 1e-05 s⁻¹	–	< 1e-05 s⁻¹	–	< 1e-05 s⁻¹
C11A A42G	< 1e-05 s⁻¹	–	–	–	–
C10U U46C	< 1e-05 s⁻¹	–	< 1e-05 s⁻¹	< 1e-05 s⁻¹	< 1e-05 s⁻¹
C10G A42U C67G	< 1e-05 s⁻¹	–	–	–	–

Variant	self-cleavage kobs at 40 uM GlcN6P [1]	self-cleavage kobs at 10000 uM GlcN6P [2]	self-cleavage kobs at 640 uM GlcN6P [3]	self-cleavage kobs at 160 uM GlcN6P [4]	self-cleavage kobs at 2500 uM GlcN6P [5]
C10A G35A G41A U55G A64U	< 1e-05 s⁻¹	–	–	–	–
C10A U31A U46G U56A C61U	< 1e-05 s⁻¹	< 1e-05 s⁻¹	–	–	–
C11A G37A G38U	< 1e-05 s⁻¹	< 1e-05 s⁻¹	–	–	–
C10U G29C G37A A53C	< 1e-05 s⁻¹	–	–	–	–
C10U A33C U47G G51U C58G A64U C70A	7.66e-05 ± 2.4e-05 s⁻¹	0.000101 ± 2.1e-05 s⁻¹	–	–	–
C11A G59U	0.000273 ± 2.8e-05 s⁻¹	–	–	–	–
C10U G35C A42U	< 1e-05 s⁻¹	–	< 1e-05 s⁻¹	–	–
C10G A53G	< 1e-05 s⁻¹	–	–	< 1e-05 s⁻¹	–
C10G A15G	< 1e-05 s⁻¹	–	–	< 1e-05 s⁻¹	–
C10G U30C U69C	< 1e-05 s⁻¹	< 1e-05 s⁻¹	–	–	–
C11A A39G A52U C67U	< 1e-05 s⁻¹	–	< 1e-05 s⁻¹	–	< 1e-05 s⁻¹
C10A A14C U45C C68U	< 1e-05 s⁻¹	< 1e-05 s⁻¹	< 1e-05 s⁻¹	–	< 1e-05 s⁻¹
C11A G40C	< 1e-05 s⁻¹	–	–	< 1e-05 s⁻¹	–
C11A U31C G40U A42G U65C	< 1e-05 s⁻¹	–	–	–	–
C10U C58G	< 1e-05 s⁻¹	–	–	–	–
C10U C58A	< 1e-05 s⁻¹	< 1e-05 s⁻¹	–	–	–
C10G A52U U55C A64C	< 1e-05 s⁻¹	–	< 1e-05 s⁻¹	–	–
C10U C11U U49C	< 1e-05 s⁻¹	–	< 1e-05 s⁻¹	–	–
C10U G62A	< 1e-05 s⁻¹	< 1e-05 s⁻¹	< 1e-05 s⁻¹	–	–
